In all, about 45,000 compounds went through this assay and about 200 (0.44%) were called active. Inconclusive results, whose numbers are uncertain, are shown with a selection of clear calls. Calls come from the whole dose curve; as a rule, active = well fitted activation curve with a large enough effect; inconclusive = small, poorly fitted or top-dose-only effect; inactive = no such curve, though single readings can be large or run the other way. Potencies of inconclusive entries are doubtful fits and often do not repeat.
Assay: qHTS of TDP-43 Inhibitors: NCGC Sytravon Library Screen; note: nearly all actives have a fitted effect of over 55% in size; for growth rescue (activation): 0% is about no effect
Conditions: yeast TDP-43 toxicity rescue, BacTiter-Glo growth, 24 h; growth rescue (activation): at 46.1 µM (top of the series)
Method in brief: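 TDP-43-expressing yeast, pregrown in raffinose, seeded at OD600 0.02 in galactose medium with compound for 24 hr at 30 deg C. Growth read by BacTiter-Glo luminescence, so rescue of toxicity appears as activation.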
Potency is the fitted concentration of half-maximal effect; tags give direction and shape of the fitted curve.

Row | Structure (SMILES) | Potency | growth rescue (activation)
1 | COc1ccc(Cl)cc1NC(=S)NN1CCOCC1 | inactive | 
2 | COc1ccc(NS(=O)(=O)c2ccc(Br)cc2)cn1 | inconclusive: 11.2 µM [activator, partial curve, poor fit] | 
3 | O=C(Nc1ccc(C(O)c2ccccc2)cc1)[C@@H]1O[C@H](CO)[C@@H](O)[C@H]1O (stereo not given in full) | inactive | 
4 | O=C(Nc1cccc(C(F)(F)F)c1)C(Sc1ncnc2ccccc12)c1ccccc1 (stereo not given) | inconclusive: 28.2 µM [activator, single point] | 
5 | C/C(=N\Nc1nc2ccccc2[nH]1)c1ccc([N+](=O)[O-])cc1 | inconclusive: 35.5 µM [activator, single point] | 
6 | CC(C)CCNC(=O)C1(C)CCN1Cc1ccc(-c2ccccn2)cc1 (stereo not given) | inactive | 
7 | Cc1ccc(Cl)cc1-c1cc(C(=O)NCc2ccccc2)[nH]n1 |  | inconclusive: 117% [activator]
8 | Cc1onc(-c2ccccc2)c1C(=O)N1CCN(S(=O)(=O)c2ccccc2Br)CC1 | inactive | 
9 | COc1ccc(C/C(N)=N/OC(=O)c2ccc(Cl)cc2)cc1 | inconclusive: 7.08 µM [activator, full curve, poor fit] | 
10 | COc1ccc(OC)c(-c2nc(Nc3ccccc3C)sc2CC(=O)O)c1 | inconclusive: 17.8 µM [activator, single point] | 
11 | Cc1ccc(NC(=O)COC(=O)c2cc(Cl)ccc2[N+](=O)[O-])cc1 | inconclusive: 14.1 µM [activator, partial curve, poor fit] | 
12 | CN1CCN(c2ccc([N+](=O)[O-])cc2C(=O)c2ccccc2)CC1 | inactive | 
13 | COc1ccccc1CNC(=O)N1CCN(c2ccccc2C)CC1 | inconclusive: 15.8 µM [activator, partial curve, poor fit] | 
14 | CCc1ccc(CNC(=O)C2CCN(S(=O)(=O)N3CCC4(CC3)OCCO4)CC2)cc1 | inactive | 
15 | O=C(Cc1ccccc1F)NC1CCCc2ccccc21 (stereo not given) | inconclusive: 20 µM [activator, single point] | 
16 | CC(=O)Nc1cccc(OCc2c(F)cccc2Cl)c1 | inconclusive: 11.2 µM [activator, partial curve] | 
17 | CCC(=O)Oc1ccc2c(c1)O/C(=C\c1ccco1)C2=O | inconclusive: 12.6 µM [activator, partial curve, poor fit] | 
18 | O=C(O)c1ccc(Cl)c(S(=O)(=O)N2CCC(Cc3ccccc3)CC2)c1 | inconclusive: 12.6 µM [activator, single point] | 
19 | CCc1ccccc1NC(=O)CN(C)Cc1c(O)ccc2ccccc12 | inconclusive: 12.6 µM [activator, partial curve, poor fit] | 
20 | O=C(COC(=O)C1CCN(S(=O)(=O)c2cccs2)CC1)Nc1ccc(F)cc1F | inconclusive: 31.6 µM [activator, single point] | 
21 | COc1ccc(Br)cc1C(=O)NC(=S)Nc1ccc2[nH]c(=O)[nH]c2c1 | inactive | 
22 | COC(=O)c1cc2oc3ccccc3c2n1CC(=O)Nc1ccc(F)c(Cl)c1 | inactive | 
23 | CN(C)c1ccc(NC(=O)Cn2cc(S(=O)(=O)Cc3ccccc3Cl)c3ccccc32)cc1 | inactive | 
24 | CCOc1ccccc1NC(=O)C1CCCCN1S(=O)(=O)c1ccccc1 (stereo not given) | inconclusive: 12.6 µM [activator, partial curve, poor fit] | 

Row | Structure (SMILES) | Potency | growth rescue (activation)
25 | Cc1noc(C)c1COc1ccc(C(=O)OCC(=O)NCc2ccccc2Cl)cc1 | inconclusive: 17.8 µM [activator, partial curve, poor fit] | 
26 | NS(=O)(=O)c1ccc(O)c(NC(=O)c2ccc([N+](=O)[O-])o2)c1 | inconclusive: 35.5 µM [activator, single point] | 
27 | CCCCNC(=S)N(C)/N=C/c1ccccc1F | inconclusive: 22.4 µM [activator, partial curve, poor fit] | 
28 | Cc1oc(C(C)(C)C)cc1C(=O)Nc1ccc(C(=O)O)cc1 | inconclusive: 22.4 µM [activator, single point] | 
29 | CS(=O)(=O)N1CCC(c2noc(-c3ccc(C(F)(F)F)cc3)n2)CC1 | inconclusive: 12.6 µM [activator, partial curve, poor fit] | 
30 | COc1cccc(Nc2nc(-c3ccccc3)nc3ccccc23)c1 | inconclusive: 31.6 µM [activator, single point] | 
31 | Cc1ccc2nc(NC(=O)COC(=O)c3ccc(Br)o3)sc2c1 | inconclusive: 31.6 µM [activator, partial curve, poor fit] | 
32 | CCc1nc2c(OCCn3cccc3)cccn2c1N(C=O)Cc1ccccc1 | inactive | 
33 | Nc1ccc2nc3c(c(Cl)c2c1)CCCC3 | inconclusive: 35.5 µM [activator, single point] | 
34 | Cn1c(/C(C#N)=C/c2ccccc2Br)nc2ccccc21 | inactive | 
35 | CC1CCN(C(=O)CSc2nnc(-c3cccnc3)o2)CC1 | inactive | 
36 | CC(C)(C)C1CCc2c(sc(NC(=O)C3c4ccccc4Oc4ccccc43)c2C(N)=O)C1 (stereo not given) | inactive | 
37 | CC1CN(C(=O)COc2ccc3ccccc3c2)CC(C)O1 (stereo not given) | inconclusive: 35.5 µM [activator, partial curve, poor fit] | 
38 | COc1ccc(CCNC2=CC(=O)CC(C)(C)C2)cc1 | inactive | 
39 | CCOC(=O)c1c(C)[nH]c(C)c1C(=O)COC(=O)/C=C/c1ccc(OC(F)F)cc1 | inconclusive: 20 µM [activator, single point] | 
40 | CC(C)c1ccc(/C=C/C(=O)O)cc1 | active: 6.31 µM | 
41 | CSc1ccc(CN(C)C(=O)c2cc(Cl)c3c(c2)OCCO3)cc1 | inactive | 
42 | COc1ccc(-c2cn3cccnc3n2)cc1NC(=O)c1cc(C)cc(C)c1 | inconclusive: 17.8 µM [activator, partial curve] | 
43 | CCC1(C)Cc2c(sc3nc(SCC(=O)c4ccccc4)[nH]c(=O)c23)CO1 (stereo not given) | inconclusive: 35.5 µM [activator, single point] | 
44 | O=C(Nc1ccc(Br)cc1F)N1CCC2(CC1)Oc1ccccc1C(=O)N2Cc1ccccc1F | inactive | 
45 | CC1CCCN(c2ccc(C(=O)Nc3ccc4c(c3)OCO4)cc2[N+](=O)[O-])C1 (stereo not given) | inconclusive: 35.5 µM [activator, single point] | 
46 | CC(=O)NC1(C(F)(F)F)C(=O)Nc2c1c(=O)[nH]c(=O)n2-c1ccccc1 (stereo not given) | inconclusive: 35.5 µM [activator, single point] | 
47 | COc1ccc(NC(=O)C(Cl)=C(Cl)Cl)cn1 | inconclusive: 20 µM [activator, partial curve, poor fit] | 
48 | CCCCc1cc(=O)oc2cc(OS(C)(=O)=O)ccc12 | inconclusive: 35.5 µM [activator, partial curve, poor fit] | 

Row | Structure (SMILES) | Potency | growth rescue (activation)
49 | Cc1c(C(=O)NCCc2ccc(Cl)cc2)sc2nc3n(c(=O)c12)CCCC3 | inconclusive: 22.4 µM [activator, single point] | 
50 | COc1ccc(-c2ccc(C(=O)NCC3CC3)c3occc23)c(C)c1 | inconclusive: 22.4 µM [activator, single point] | 
51 | O=S(=O)(c1cccc(-c2csc(-c3cccnc3)n2)c1)N1CCOCC1 | inconclusive: 15.8 µM [activator, single point] | 
52 | CC(C)NC(=S)n1cc(C(=O)c2cc(Cl)cc(Cl)c2O)cn1 | inconclusive: 2.51 µM [activator, full curve, poor fit] | 
53 | Oc1ccccc1CNc1ccc(Br)cn1 | inconclusive: 20 µM [activator, partial curve, poor fit] | 
54 | O=C(NC1CCCc2ccccc21)c1c(F)cccc1Cl (stereo not given) | inconclusive: 14.1 µM [activator, partial curve, poor fit] | 
55 | COc1ccc(-c2csc(C(O)c3cccc(Cl)c3)n2)cn1 (stereo not given) |  | inconclusive: 79.2% [activator]
56 | NC(Cc1ccccc1)C(=O)N1CCCCC1 (stereo not given) | inactive | 
57 | O=C(CC12CC3CC(CC(C3)C1)C2)NCC(c1ccc(F)cc1)N1CCOCC1 (stereo not given) | inactive | 
58 | CCOC(=O)C1(C)CCCN(C(=O)c2cccs2)C1 (stereo not given) | inactive | 
59 | N#C/C(=C\c1cccnc1)C(=O)Nc1cccc2ccccc12 | inconclusive: 20 µM [activator, single point] | 
60 | COc1ccccc1NS(=O)(=O)c1cccc(C(=O)OCC(=O)Nc2cc(C)on2)c1 | inconclusive: 12.6 µM [activator, single point] | 
61 | CCOC(=O)C(=Cc1ccc(-n2ccnc2)cc1)C(=O)OCC | inconclusive: 31.6 µM [activator, single point] | 
62 | O=C(NC1CCCC1)C(c1ccccn1)N(C(=O)c1csnn1)c1ccccc1Br (stereo not given) | inactive | 
63 | CCOc1ccc(NC(=S)Nc2ccccc2C2CC2)cc1 | inactive | 
64 | COc1ccc(OC)c(-c2csc(NC(=O)Cc3ccc(F)cc3)n2)c1 | inconclusive: 35.5 µM [activator, single point] | 
65 | COc1cc(C(=O)/C=C/Nc2ccc(NC(C)=O)cc2)cc(OC)c1OC | inconclusive: 20 µM [activator, partial curve, poor fit] | 
66 | COCCOC(=O)C1=C(C)N(c2ccccc2)C(=S)NC1c1ccccc1C(F)(F)F (stereo not given) | inconclusive: 35.5 µM [activator, single point] | 
67 | COc1ccc(C(=O)c2cc([N+](=O)[O-])ccc2N2CCOCC2)cc1 | inconclusive: 31.6 µM [activator, single point] | 
68 | COc1ccc(NC(=O)c2cc(-c3cc(Cl)ccc3C)n[nH]2)cc1OC |  | inconclusive: 149% [activator]
69 | Cc1ccc(NC(=O)C2CC(=O)N(c3ccc(OC(C)C)cc3)C2)cc1 (stereo not given) | inactive | 
70 | CCc1ccccc1N(C)C(=O)c1ccc2c(=O)n3c(nc2c1)CCCCC3 | inconclusive: 28.2 µM [activator, single point] | 

Reference: PubChem BioAssay AID1347073 (National Center for Advancing Translational Sciences (NCATS), 2019)
